From US10485854B2, “Method of reducing biofilms” (Lysando AG, priority 2010, dated 2019)

Tested on: P. pastoris X33 cells
Procedure: The open reading frame encoding POLY-gp144 (SEQ ID NO: 35) was cloned in the pPICZαA shuttle vector (Invitrogen), which was subsequently integrated in the P. pastoris genome by homologous recombination (as indicated by the manufacturer; P. pastoris X33 cells, Invitrogen). Gene expression was induced with methanol (1%) in BMMY-medium and the supernatant was analyzed for the presence of enzymatic activity after 1, 3 and 4 days. […] Subsequently, the optical density was spectrophotometrically recorded (FIG. 2). A drop in optical density indicates the secretion of a muralytic enzyme by P. pastoris. As a negative control, P. pastoris X33 without expression plasmid was included. Thus, the lysis of the substrate upon addition of the supernatants sample is a measure for successful recombinant production and secretion of POLY-gp144 (SEQ ID NO: 35) by P. pastoris.

B1: POLY-gp144: fusion protein SEQ ID NO: 35: endolysin phiKZgp144 (SEQ ID NO: 1) with N-terminal peptide KRKKRKKRK (SEQ ID NO: 11) (protein)
chain: MGSKRKKRKKRKKVLRKGDRGDEVCQLQTLLNLCGYDVGKPDGIFGNNTFNQVVKFQKDNCLDSDGIVGKNTWAELFSKYSPPIPYKTIPMPTANKSRAAATPVMNAVENATGVRSQLLLTFASIESAFDYEIKAKTSSATGWFQFLTGTWKTMIENYGMKYGVLTDPTGALRKDPRISALMGAELIKENMNILRPVLKREPTDTDLYLAHFFGPGAARRFLTTGQNELAATHFPKEAQANPSIFYNKDGSPKTIQEVYNLMDGKVAAHRK
modifications: POLY-gp144
With B1 the “toxic effect on the cell density of P. pastoris” value was “No toxic effect”.
